Results reported in PubChem BioAssay AID1963576 (National Center for Advancing Translational Sciences (NCATS), 2024).
The whole screen tested about 46,000 compounds, of which about 60 (0.1%) were called active. About 3% were inconclusive and are not listed. Calls follow the shape of the dose curve; as a rule, active = well fitted inhibition curve with a large enough effect; inconclusive = small, poorly fitted or top-dose-only effect; inactive = no such curve, though single readings can be large or run the other way. Some of the results follow.

Assay: Primary qHTS assay for Inhibitors of ovarian cancer metastasis using an organotypic tumor microenvironment (TME) model. Also: nearly all actives have a fitted effect of over 65% in size.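 As to activity change, negative = inhibition: plate controls were DMSO wells for no effect and tomatine positive control wells for full effect.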
Conditions: SKOV3ip1-GFP adhesion/invasion on 3D omental model, fluorescence; series mostly up to 45.8 µM; activity change, negative = inhibition: at the top concentration
In short: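 Primary human omental fibroblast/mesothelial 3D culture pre-formed 48 h. SKOV3ip1-GFP cells added with compounds (0.36-46 umol/L), incubated 2 h RT/16 h 37 C, fixed; GFP cells quantified at 488/509 nm.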

Activity change, negative = inhibition, inactive:
COc1cccc(N2CCN(C(=O)c3cc4c(=O)n(Cc5ccccc5)ccc4nc3C)CC2)c1 14.8%
CCOc1ccc(-n2nc(CO)c(C(=O)NCc3cccnc3)n2)cc1 -4.8%
COc1ccc(-c2noc(-c3ccc(N4CCN(c5ccc(OC)cc5)CC4)c([N+](=O)[O-])c3)n2)cc1 9.02%
CCCCC(=O)Nc1cccc(-c2nc3ncccc3o2)c1C 2.35%
CCC(=O)N1c2ccccc2CC1C(=O)NCc1cccc(C)c1 (stereo not given) -6.39%
Cc1ccccc1-c1nc(CS(=O)CC(=O)N2CCN(c3cc(Cl)ccc3C)CC2)c(C)o1 (stereo not given) -7.43%
COc1ccc(OC)c(C(=O)c2c(N)c(-c3nc(-c4ccc(C)c(C)c4)cs3)c3ccccn23)c1 7.48%
CCOc1cccc(C2Nc3ccccc3-c3cc(C)nn32)c1O (stereo not given) 10.9%
COc1ccc(NC(=O)c2ccc3oc(=O)c(S(=O)(=O)c4ccc(C)cc4)cc3c2)cc1OC -8.66%
Cc1nn(S(=O)(=O)c2ccccc2)c(C)c1S(=O)(=O)N1CCC(C)CC1 39.2%
COc1ccc(Cn2nnc3c(=O)[nH]c(C4CCCN(C(=O)c5ccc(C)cc5)C4)nc32)cc1 (stereo not given) 4.8%
COc1ccc(CCNC(=O)Cn2c(=O)n(-c3ccc(C)c(C)c3)c(=O)c3c(C)c(C)sc32)cc1OC 0.567%
CCCCc1ccc(NC(=O)Cn2nnc3sc4c(c3c2=O)CCC(C)C4)cc1 (stereo not given) 14.1%
Cc1ccc(C(=O)c2oc3ccccc3c2NC(=O)Cc2coc3cc(C)ccc23)cc1 -1.51%
Cc1ccc(NC(=O)CSc2nc(C)c(Cc3ccccc3)c(=O)[nH]2)cc1C 2.44%
CCOC(=O)C1(C)C=C(Nc2ccc(Br)cc2)C(=O)N1c1ccccc1 (stereo not given) -2.77%
Cc1c(C(=O)N(Cc2ccc(N(C)C)cc2)C2CCS(=O)(=O)C2)oc2ccccc12 (stereo not given) -13.8%
COc1cc(C(=O)CC2(O)C(=O)N(Cc3ccccc3Cl)c3ccccc32)cc(OC)c1OC (stereo not given) -11%
Cc1ccc2sc(N(Cc3cccnc3)C(=O)CCOc3ccccc3)nc2c1C 7.89%
CCN(C(=O)C(=O)Nc1ccc2nc3n(c(=O)c2c1)CCCCC3)c1ccc(F)cc1 -28.1%
COc1ccc2c(CNCc3ccc(C)o3)c(C(=O)O)n(Cc3ccccc3C)c2c1 15.7%
CCN(c1ccccc1)C(CNS(=O)(=O)c1ccccc1)c1ccccc1 (stereo not given) 0.478%
Cc1nn(C(C)C(=O)NC2CCCCC2)c(=O)c2c1sc1ccccc12 (stereo not given) 7.39%
COc1ccc(CCNC(=O)Cc2c(C)c3c(cc(C)c4c(C)coc43)oc2=O)cc1OC -2.26%
Cc1ccc(OCC(=O)Nc2ccc(OCc3cc(=O)n4cccc(C)c4n3)cc2)cc1C 2.52%
COc1ccc(C2CC(=O)c3cc(-c4nc(-c5cccc([N+](=O)[O-])c5)cs4)c(=O)n(-c4ccc(C)c(C)c4)c3C2)cc1 (stereo not given) 9.83%
Cc1nnc(NC(=O)CSc2nc3c([nH]c4ccccc43)c(=O)n2-c2ccccc2)s1 4.53%
O=C(Nc1c(C(=O)N2CCN(c3ccc(F)cc3)CC2)oc2ccccc12)c1c(F)cccc1F -4.78%
COc1ccc(Cn2c(CNC(=O)c3ccc(N(C)C)cc3)nc3cccnc32)cc1 -2.42%
O=C(Cn1cc(SCc2ccc(C(F)(F)F)cc2)c2ccccc21)N1CCCCCC1 -3%
CCC1CCCCN1CCCNC(=O)CN1C(=O)c2cccnc2Oc2ccc(Cl)cc21 (stereo not given) 4.6%
CC(C)Oc1ccc(C(=O)Nc2ccc3c(c2)CCCN3C(=O)c2cccs2)cc1 -9.69%
CC(C)CSc1nnc(-c2ccccc2)c(-c2ccccc2)n1 -1.39%
CCOC(=O)c1ccc(N2CCN(c3ccccc3F)CC2)c(NC(=O)Nc2ccc(Cl)c(Cl)c2)c1 -2.72%
Cc1ccc(NC(=O)c2oc3ccc(S(=O)(=O)N4CCCCCC4)cc3c2C)cc1Cl -3.76%
Cc1ccc2oc(=O)c3cc(C(=O)Nc4ccc(F)cc4F)sc3c2c1 -21.1%
Fc1ccc(Nc2nc3ccccc3c3nncn23)c(Cl)c1 4.78%
Cc1cc(C)c2nc(N3CCCC(C(=O)NCc4cccc(Br)c4)C3)sc2c1 (stereo not given) 8.63%
COc1ccccc1OCCn1c(NC(=O)c2ccc(Cl)cc2)nc2ccccc21 0.159%
COc1ccc(-c2nc3ccccc3s2)cc1NC(=O)COc1ccccc1C -15.6%
CCc1ccc(NC(=O)C2CCC(CNS(=O)(=O)c3ccc4c(c3)CC(C)N4C(C)=O)CC2)cc1 (stereo not given) 4.52%
Cc1ccc(Cl)cc1NC(=O)CN1C(=O)c2cccc3cccc1c23 4.75%
CCCN1C(=O)c2[nH]nc(-c3ccccc3O)c2C1c1ccc(OCc2ccccc2)c(OCC)c1 (stereo not given) -0.411%
Cc1nn(CC(=O)NCc2cccc(Br)c2)c(=O)c2c1sc1ccccc12 -10.6%
CN(C)c1ccc(CNC(=O)CN2C(=O)c3cccnc3Oc3ccc(Cl)cc32)cc1 -1.31%
Cc1oc2ccc(O)c(CN3CCN(Cc4ccccc4)CC3)c2c1C(=O)Nc1ccccc1 2.82%
O=S(=O)(NCCc1nnc2ccc(SCc3ccc(C(F)(F)F)cc3)nn12)c1ccccc1 -5.17%
Cc1cc(C)c(S(=O)(=O)NCCc2cc3cc(C)c(C)cc3[nH]c2=O)c(C)c1 5.65%
COCCNC(=O)C1CCC(CNS(=O)(=O)c2ccc3c(c2)CC(C)N3C(C)=O)CC1 (stereo not given) 1.53%
COc1ccc(N(CC(=O)NCc2ccccc2Cl)S(=O)(=O)c2c(C)[nH]c(=O)[nH]c2=O)cc1 -11.7%
O=C(C1COc2ccccc2O1)N1CCN(c2nc3c(F)cccc3s2)CC1 (stereo not given) -0.563%
CC(C)C(=O)Nc1nnc(S(=O)(=O)N2CCCCCC2)s1 13.9%
Cc1ccc(Nc2nc3ccc(C)cc3nc2-n2nc(C)cc2C)c(C)c1 8.69%
COc1cccc(C(c2sc3nc(-c4ccco4)nn3c2O)N2CCOCC2)c1 (stereo not given) 0.609%
COc1ccc(NC(=O)CSc2nnc(-c3ccc(OC)cc3)s2)cc1 3.58%
Cc1c(C(=O)Nc2cccc(F)c2)oc2c1-c1nn(Cc3c(F)cccc3Cl)cc1CC2 -2.74%
COc1cc(C(CC(=O)Nc2ccc(Br)cn2)N2Cc3ccccc3C2=O)cc(OC)c1OC (stereo not given) 4.9%
COc1cccc(CNC(=O)c2sc3nc4n(c(=O)c3c2C)CCC4)c1 -11%
O=C(NCCc1cccs1)c1ccc(Cn2c(SCc3ccccc3)nc3cccnc32)cc1 1.18%
CC(C)(C)c1cnc(CSc2cnc(NC(=O)C3CCNCC3)s2)o1 12.2%
Cc1ccc(Cn2c(=O)n(CC3CCC(C(=O)N4CCC(C)CC4)CC3)c(=O)c3sccc32)cc1 (stereo not given) 20.2%
Cc1ccc(CNC(=O)c2c(O)nc3ccccn3c2=O)cc1 7.77%
Cc1c(Cl)cccc1NC(=O)NCc1c(-n2cccc2)sc2c1CCCC2 2.87%
Cc1ccc(N(Cc2cccs2)C(=O)Nc2cccc(Cl)c2)cc1 -5.31%
CCOC(=O)c1ccccc1NC(=O)c1cc2c(s1)-c1c(C)cccc1OC2 -0.159%
COc1ccc(N2CC3=C(C2=O)C(c2ccc(O)c(OC)c2)NC(=O)N3C)cc1 (stereo not given) -3.06%
CC(C)OCCCNc1sc(S(=O)(=O)c2ccccc2)nc1S(=O)(=O)c1ccc(Cl)cc1 5.52%
Cc1c(C(=O)Nc2ccc(F)cc2F)oc2ccc3c(c12)C(=O)CC(C)(C)O3 -16.1%
Cn1ncc2c(NCc3ccc(Cl)cc3)ncnc21 -2.53%
COc1ccc(CCNC(=O)c2cnc3ccc(C)cn3c2=O)cc1OC 2.69%
COCCCNC(=O)c1cc(-c2ccc(OC)cc2)nc2n[nH]c(-c3ccc(Cl)cc3)c12 25.4%
Cc1ccsc1CN(Cc1ccco1)C(=O)c1ccc(Cl)cc1 -2.67%
CCOc1ccc(NC(=O)CSc2ncn[nH]2)cc1 2.11%
CCOC(=O)c1cc(-c2ccc(OC)cc2)n(CCC(=O)NCc2ccccc2OC)c1C 1.67%
CON(C)C(=O)N1N=C(c2cc(F)ccc2F)S[C@]1(CCCN)c1ccccc1 3.18%
O=C(Nc1nc2c(F)cc(F)cc2s1)c1ccc2c(c1)OCCO2 -4.99%
COc1cc(OC)c(N(C)C(=O)c2cn(C)c(=O)c3cc(OC)c(OC)cc23)cc1Cl 3.22%

outcome, inactive:
CCN(CC)CCCNC(=O)Cn1nc(C)n2c(cc3sccc32)c1=O
Clc1cccc(CSc2nncn3c2cc2sccc23)c1
CCc1ccccc1NC(=O)Cn1ccn(-c2cc(C)cc(C)c2)c(=O)c1=O
CCn1c(=NC(=O)c2ccc3c(c2)OCCO3)sc2c(C)ccc(OC)c21
COc1ccc(OC)c(C2NC(=O)NC(C)=C2C(=O)Nc2cc(C)cc(C)c2)c1 (stereo not given)
O=C(c1ccc2c(c1)N(Cc1ccccc1)C(=O)c1ccccc1S2(=O)=O)N1CCN(c2ccccc2)CC1
COc1ccc(CCNC(=O)c2ccc3c(c2)CCN3S(C)(=O)=O)cc1
Cc1ccc(-c2nnc(Nc3ccc(Br)cc3)c3ccccc23)cc1S(=O)(=O)N1CCN(C)CC1
COc1ccc(CC(=O)NC2CC(=O)N(c3cccc(F)c3)C2)cc1 (stereo not given)
CCC(Sc1nc2ccccc2c2nc(CCn3cncc3C)nn12)C(=O)Nc1cccc(OC)c1 (stereo not given)
COc1ccc(CCNC(=O)c2ccc(Cn3c(=O)c4ccccc4n(Cc4cc(C)ccc4C)c3=O)cc2)cc1OC
COc1ccc(C)c2sc(N(Cc3cccnc3)C(C)=O)nc12
Cc1oc2c(c1C(=O)Nc1ccccc1Br)C1=NCCN1C=N2
CCOc1ccccc1NC(=O)Cn1cnc2c1c(=O)n(C)c(=O)n2C
CCOc1ccccc1NC(=O)CSc1nc2c(oc3ccccc32)c(=O)n1C(C)C
Cc1ccc(C)c(N2CCN(S(=O)(=O)c3ccc(-c4cc(C(F)(F)F)on4)s3)CC2)c1
O=C(NCCc1ccc(Cl)cc1)C(=O)NCC(c1ccc2c(c1)OCO2)N1CCOCC1 (stereo not given)
Cc1c(Cl)cccc1NC(=O)C1CCCN(C(=O)c2cnn(-c3ccccc3)c2-n2cccc2)C1 (stereo not given)
